Assay results published in PubChem BioAssay AID504333 (National Center for Advancing Translational Sciences (NCATS), 2011).
Where “and” joins values, the source holds several entries; their conditions need not be identical. Identical values can stand only once. In all, about 360,000 compounds went through this assay and about 16,000 (4.4%) were called active. The inconclusive results got no clear call from the source; some entries with a clear call stand among them for comparison. Calls come from the whole dose curve; as a rule, active = well fitted inhibition curve with a large enough effect; inconclusive = small, poorly fitted or top-dose-only effect; inactive = no such curve, though single readings can be large or run the other way. A potency beside an inconclusive call is a rough fit, not a confirmed value.

Target: Bromodomain adjacent to zinc finger domain protein 2B (Homo sapiens) (UniProt Q9UIF8)
UniProt Q9UIF8, sequence (Q9UIF8 whole entry, looked up, the tested form may be a part): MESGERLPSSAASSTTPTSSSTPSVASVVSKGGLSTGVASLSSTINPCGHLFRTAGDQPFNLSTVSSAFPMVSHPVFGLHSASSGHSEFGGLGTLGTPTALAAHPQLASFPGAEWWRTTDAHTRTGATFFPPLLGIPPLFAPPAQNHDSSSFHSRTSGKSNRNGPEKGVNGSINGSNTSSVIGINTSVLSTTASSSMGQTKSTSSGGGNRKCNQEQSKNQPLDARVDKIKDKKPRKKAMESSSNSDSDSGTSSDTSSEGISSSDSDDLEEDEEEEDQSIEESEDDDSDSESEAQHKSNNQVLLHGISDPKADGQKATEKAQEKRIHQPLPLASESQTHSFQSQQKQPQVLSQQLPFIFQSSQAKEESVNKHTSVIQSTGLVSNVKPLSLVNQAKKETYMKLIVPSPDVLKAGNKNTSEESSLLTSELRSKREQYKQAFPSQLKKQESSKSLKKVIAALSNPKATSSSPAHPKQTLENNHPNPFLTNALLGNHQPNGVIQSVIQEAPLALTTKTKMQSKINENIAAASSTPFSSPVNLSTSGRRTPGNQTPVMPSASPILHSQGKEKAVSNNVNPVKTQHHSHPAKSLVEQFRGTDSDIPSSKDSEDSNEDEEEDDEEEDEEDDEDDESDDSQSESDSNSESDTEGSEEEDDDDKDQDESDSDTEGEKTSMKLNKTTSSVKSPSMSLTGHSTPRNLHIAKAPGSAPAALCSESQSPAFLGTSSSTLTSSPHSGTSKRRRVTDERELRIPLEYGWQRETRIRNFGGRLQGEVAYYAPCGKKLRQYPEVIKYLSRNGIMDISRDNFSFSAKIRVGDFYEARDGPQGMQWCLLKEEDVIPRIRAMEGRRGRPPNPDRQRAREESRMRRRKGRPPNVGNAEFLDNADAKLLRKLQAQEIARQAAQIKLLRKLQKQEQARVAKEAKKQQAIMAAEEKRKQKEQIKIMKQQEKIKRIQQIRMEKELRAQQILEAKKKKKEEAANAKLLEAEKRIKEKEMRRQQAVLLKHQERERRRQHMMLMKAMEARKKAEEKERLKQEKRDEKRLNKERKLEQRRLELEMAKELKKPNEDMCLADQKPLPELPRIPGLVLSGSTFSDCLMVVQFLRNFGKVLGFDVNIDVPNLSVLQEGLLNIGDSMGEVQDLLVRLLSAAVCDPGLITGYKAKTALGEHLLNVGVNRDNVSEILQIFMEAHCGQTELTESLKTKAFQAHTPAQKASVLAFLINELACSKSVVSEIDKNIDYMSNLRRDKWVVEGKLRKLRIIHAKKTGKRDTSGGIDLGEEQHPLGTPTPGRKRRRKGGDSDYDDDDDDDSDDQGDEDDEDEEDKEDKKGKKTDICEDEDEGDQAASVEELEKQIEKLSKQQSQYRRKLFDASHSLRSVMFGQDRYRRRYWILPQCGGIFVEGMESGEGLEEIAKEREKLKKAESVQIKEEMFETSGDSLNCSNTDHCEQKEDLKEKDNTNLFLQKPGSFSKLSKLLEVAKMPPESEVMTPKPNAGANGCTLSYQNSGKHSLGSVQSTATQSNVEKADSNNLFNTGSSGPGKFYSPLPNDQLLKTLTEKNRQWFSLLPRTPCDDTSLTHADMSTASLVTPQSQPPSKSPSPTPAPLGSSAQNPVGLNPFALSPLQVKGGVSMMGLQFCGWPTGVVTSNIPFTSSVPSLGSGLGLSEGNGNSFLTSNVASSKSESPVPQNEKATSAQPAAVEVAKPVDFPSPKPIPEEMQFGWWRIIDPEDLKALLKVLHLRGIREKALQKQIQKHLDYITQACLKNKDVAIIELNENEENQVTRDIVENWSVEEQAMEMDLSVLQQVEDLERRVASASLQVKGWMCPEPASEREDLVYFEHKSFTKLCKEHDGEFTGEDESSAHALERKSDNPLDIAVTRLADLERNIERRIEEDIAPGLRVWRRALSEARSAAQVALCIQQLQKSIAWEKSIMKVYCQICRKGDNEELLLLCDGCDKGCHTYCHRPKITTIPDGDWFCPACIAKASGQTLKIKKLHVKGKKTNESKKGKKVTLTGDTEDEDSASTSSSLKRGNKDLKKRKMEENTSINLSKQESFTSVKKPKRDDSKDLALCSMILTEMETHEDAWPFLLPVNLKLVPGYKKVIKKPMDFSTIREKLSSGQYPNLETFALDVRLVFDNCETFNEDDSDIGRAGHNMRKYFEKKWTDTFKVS
Assay: qHTS Assay for Inhibitors of BAZ2B; note: nearly all actives have a fitted effect of over 60% in size
Conditions: AlphaScreen BAZ2B-H3K14Ac peptide displacement; series mostly up to 114 µM
Summary of the method: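 Inhibition is scored as reduced AlphaScreen emission. The BAZ2B/b-H3(5-23)K14Ac complex (50 nM each) in PBS pH 7.4, 0.01% Tween-20 meets compound (up to 110 uM) for 30 min at RT before bead addition.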
Potency is the fitted concentration of half-maximal effect; tags give direction and shape of the fitted curve.

| SMILES | Potency |
| --- | --- |
| CCc1ccc(CNc2ccc(N3CCN(C(C)=O)CC3)cc2)cc1 | active: 39.8 µM |
| CCn1c(=O)c(C(=O)NCCNCCO)c(O)c2ccccc21 | inconclusive: 89.1 µM [inhibitor, single point] |
| O=C1OC(CO)CN1Cc1ccccc1 (centres undefined) | inactive |
| Cc1cccc(C(=O)NCC(c2ccco2)N2CCc3ccccc32)c1 (centres undefined) | inconclusive: 50.1 µM [inhibitor, partial curve] |
| Cc1nc2sccn2c(=O)c1S(=O)(=O)NCc1ccc(F)cc1 | inactive |
| Cn1c(=O)c2nc(SCC(=O)Nc3cc(Cl)cc(Cl)c3)n(C)c2n(C)c1=O | inactive |
| O=C(O)c1ccc(N/N=C/c2ccc(OC(=O)c3cccc(Cl)c3)cc2)cc1 | active: 50.1 µM |
| CC1(C)C(C(=O)OCC(Cl)(Cl)Cl)N2C(=O)C(NC(=O)Cc3ccccc3)C2S1=O (centres undefined) | inconclusive: 89.1 µM [inhibitor, single point] |
| COc1ccc(CNc2nc(-c3ccco3)nn2C(=O)c2ccccc2Cl)cc1 | inactive |
| COC(C[C@@H]1O[C@@H]1[C@H](O)[C@H](C)OCc1ccccc1)OC | inactive |
| Cc1ccc(-n2nc3ccc(N)cc3n2)cc1C | active: 50.1 µM |
| CCN1CC=C2C(C#N)=C(N)C(C#N)(C#N)C(c3cc(Cl)ccc3Cl)C2C1 (centres undefined) | inconclusive: 89.1 µM [inhibitor, single point] |
| CCOc1ccccc1NC(=O)CCS(=O)(=O)c1ccc2c(c1)CC(C)N2C(C)=O (centres undefined) | inactive |
| COC(=O)C1Cc2c([nH]c3ccccc23)C2(CCN(Cc3ccccc3)CC2)N1 (centres undefined) | inconclusive: 44.7 µM [inhibitor, partial curve] |
| CCCC1Cc2c(sc(N)c2C#N)CO1 (centres undefined) | inconclusive: 50.1 µM [inhibitor, partial curve] |
| COc1ccc(C(=O)NCCSc2ccccc2)cc1OC | inactive |
| CC(C(=O)O)n1nc2ccccc2n1 (centres undefined) | inconclusive: 89.1 µM [inhibitor, single point] |
| CC(C)C[C@H]1CN=C(Nc2ccccc2)N1CCc1ccc(F)cc1 | inactive |
| CN(C)/C=C1/Sc2ccccc2C1=O | inconclusive: 79.4 µM [inhibitor, single point] |
| COCc1nnc(NC(=O)c2ccc(S(=O)(=O)N3CCCc4ccccc43)cc2)o1 | inconclusive: 89.1 µM [inhibitor, single point] |
| CCC(C)OC(=O)c1[nH]c2c(c1C)C(=O)CC(c1ccc(N(C)C)cc1)C2 (centres undefined) | inconclusive: 39.8 µM [inhibitor, partial curve] |
| COc1cccc(NC(=O)C2CCCN(c3nnc(-n4c(C)ccc4C)s3)C2)c1 (centres undefined) | inactive |
| O=C(O)CCC(=O)N1CCN(Cc2ccc3c(c2)OCO3)CC1 | inactive |
| COc1cccc2c1C(=O)c1c(O)c3c(c(O)c1C2=O)C[C@](O)(C(C)=O)C[C@H]3O[C@@H]1C[C@@H](N)[C@@H](O)[C@@H](C)O1 | active: 44.7 µM |
| COc1ccccc1CNC(=O)CCCn1nc(C)c2sc3ccccc3c2c1=O | inactive |

| SMILES | Potency |
| --- | --- |
| Cc1cccc(C(=O)N2CCCC(N3CCN(Cc4ccc5c(c4)OCO5)CC3)C2)n1 (centres undefined) | inactive |
| COc1cc(CN2CCCC(N3CCN(c4ccc(F)cc4)CC3)C2)ccc1F (centres undefined) | inconclusive: 79.4 µM [inhibitor, single point] |
| CCOc1ccc(NC(=S)N(CCc2c(C)[nH]c3ccccc23)Cc2cccnc2)cc1 | inconclusive: 31.6 µM [inhibitor, partial curve] |
| CCc1ccc(Nc2n[n+](-c3ccccc3)c(-c3ccc(OCc4ccccc4)cc3)s2)cc1 | active: 50.1 µM |
| Cc1ccc(-c2cc(C(=O)N3CCN(S(=O)(=O)c4ccc(Br)cc4)CC3)[nH]n2)cc1C | inactive |
| CC1=C(c2ccc(C)c(C)c2)S(=O)(=O)N=C1N1CCC(C(=O)NCCc2ccco2)CC1 | inactive |
| CCOc1cc(/C=C(\C#N)C(N)=O)ccc1OCc1c(C)no[n+]1[O-] | inactive |
| COc1ccc(C(=O)NCCn2cc(SCC(=O)NCCc3ccc(OC)c(OC)c3)c3ccccc32)cc1 | inconclusive: 79.4 µM [inhibitor, partial curve] |
| CC(C)CCNC(=O)Nc1ccc2c(c1)N(C)C(=O)c1ccccc1S2 | inconclusive: 89.1 µM [inhibitor, single point] |
| CC(=O)c1ccc(NC(=O)CC2Nc3cccc4cccc(c34)NC2=O)cc1 (centres undefined) | inconclusive: 35.5 µM [inhibitor, partial curve] and inconclusive: 50.1 µM [inhibitor, partial curve] |
| CN(Cc1ccccc1)C(=O)c1nc2ccccn2c1CN1CCC(N2CCOCC2)CC1 | inconclusive: 0.708 µM [inhibitor, full curve, poor fit] |
| CC(c1ccccc1)N1C(=O)/C(=C/c2ccncc2)SC1=S (centres undefined) | active: 15.8 µM |
| O=C(O)CCc1ccc(-c2cccs2)n1NC(=O)c1ccccc1Br | inconclusive: 89.1 µM [inhibitor, single point] |
| CSc1ccc(CCNC(=O)CCCn2nc(C)c3sc4ccccc4c3c2=O)cc1 | inactive |
| S=c1[nH]nc(Cn2c(-c3ccccn3)nc3ccccc32)n1-c1ccc2c(c1)OCCO2 | inactive |
| O=C(CCc1c[nH]c2ccccc12)OCc1ccc(Br)cc1 | inactive |
| COc1ccc(OC)c(C2(O)CSC(=Nc3cccnc3)N2Cc2ccco2)c1 (centres undefined) | active: 63.1 µM |
| COc1ccc(/C=C2\SC(=S)N(CCC(=O)NC3C=CS(=O)(=O)C3)C2=O)cc1 (centres undefined) | inactive |
| Cc1nn(-c2ccc(F)cc2)c(-n2cccc2)c1C(=O)NCCCN1CCN(c2ccccc2F)CC1 | inconclusive: 89.1 µM [inhibitor, single point] |
| Nc1ccc2c(c1)OCCOCCOCCOCCOCCO2 | inactive |
| CCOC(=O)c1ccccc1NC(=O)Nc1cc2c(cc1N1CCCCC1)n(C)c(=O)n2C | inconclusive: 89.1 µM [inhibitor, single point] |
| COc1ccc(CN2CCN(Cc3ccco3)CC2)c(OC)c1 | active: 39.8 µM |
| COc1ccc(NC(=O)Cn2c(C)cc3ccccc3c2=O)c(OC)c1 | inactive |
| CCOC(=O)N1CCN(C(=O)c2ccc(Cl)c(NC(=O)c3cccs3)c2)CC1 | inactive |
